Experimental data as given in US20260055169A1 (PARAGON THERAPEUTICS, published 2026).
Numbering of substitutions follows the chain as printed. Numbers in names are those of the source. Values belong to the binder of their own block, whether it stands above or below them.

Tests used:
[1] = biological target: T1, Recombinant human serum albumin (human, UniProt P02768); test: SPR, VHH-Fc captured on anti-human Fc, human albumin as analyte, pH 6.0
T1 construct: Analyte in SPR, 0-500 nM

[2] = biological target: T1, Recombinant human serum albumin; test: SPR, VHH-Fc captured on anti-human Fc, human albumin as analyte, pH 7.4
[3] = biological target: T2, Recombinant mouse serum albumin (mouse, UniProt P07724 25-608); test: SPR, Fc fusion captured on anti-human Fc, mouse albumin as analyte, pH 6.0
T2 construct: Analyte in SPR, 0-500 nM

[4] = biological target: T1, Recombinant human serum albumin; test: SPR, Fc-VHH captured on anti-human Fc, human albumin as analyte, pH 7.4
[5] = biological target: T1, Recombinant human serum albumin; test: SPR, Fc-VHH captured on anti-human Fc, human albumin as analyte, pH 6.0
[6] = biological target: T3, Recombinant rat serum albumin (rat, UniProt P02770 25-608); test: SPR, Fc fusion captured on anti-human Fc, rat albumin as analyte, pH 6.0
T3 construct: Analyte in SPR, 0-500 nM
T3 sequence (P02770 25-608 limits assumed): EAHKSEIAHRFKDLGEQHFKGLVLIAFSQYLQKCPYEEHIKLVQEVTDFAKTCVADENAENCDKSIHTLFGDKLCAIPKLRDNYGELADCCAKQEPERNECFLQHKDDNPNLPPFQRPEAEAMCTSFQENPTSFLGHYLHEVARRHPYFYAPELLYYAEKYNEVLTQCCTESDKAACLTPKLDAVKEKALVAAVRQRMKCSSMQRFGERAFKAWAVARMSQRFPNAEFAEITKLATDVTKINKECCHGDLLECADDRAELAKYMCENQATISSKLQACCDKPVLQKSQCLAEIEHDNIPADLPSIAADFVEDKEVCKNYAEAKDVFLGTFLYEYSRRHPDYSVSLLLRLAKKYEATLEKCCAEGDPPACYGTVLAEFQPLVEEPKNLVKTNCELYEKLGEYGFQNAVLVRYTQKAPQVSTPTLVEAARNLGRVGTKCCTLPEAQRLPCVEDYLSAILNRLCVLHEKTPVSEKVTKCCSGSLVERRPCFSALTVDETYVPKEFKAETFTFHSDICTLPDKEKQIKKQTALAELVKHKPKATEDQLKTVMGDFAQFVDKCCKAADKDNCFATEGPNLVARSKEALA

T2 sequence (P07724 25-608 limits assumed): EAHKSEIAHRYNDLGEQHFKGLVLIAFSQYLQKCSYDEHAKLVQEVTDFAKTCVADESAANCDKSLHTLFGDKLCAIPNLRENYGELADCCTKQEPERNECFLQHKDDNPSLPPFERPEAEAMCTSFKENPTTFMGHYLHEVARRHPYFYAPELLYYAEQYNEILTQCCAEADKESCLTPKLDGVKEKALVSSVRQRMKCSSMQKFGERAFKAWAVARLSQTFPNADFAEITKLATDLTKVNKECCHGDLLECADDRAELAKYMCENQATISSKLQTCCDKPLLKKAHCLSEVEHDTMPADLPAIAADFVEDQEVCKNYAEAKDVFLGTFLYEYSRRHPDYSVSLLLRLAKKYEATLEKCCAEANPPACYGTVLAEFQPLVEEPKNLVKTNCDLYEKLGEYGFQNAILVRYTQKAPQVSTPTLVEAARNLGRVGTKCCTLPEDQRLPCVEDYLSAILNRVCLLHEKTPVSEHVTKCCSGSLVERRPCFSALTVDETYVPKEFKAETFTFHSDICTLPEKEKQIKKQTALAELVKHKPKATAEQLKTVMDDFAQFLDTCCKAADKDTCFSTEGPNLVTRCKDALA

- koff [1]: 0.0122 s⁻¹
- kon [1]: 1.11e+06 M⁻¹ s⁻¹
- Kd [2]: 10.7 nM
- koff [2]: 0.00861 s⁻¹
- kon [2]: 803000 M⁻¹ s⁻¹
- Kd [3]: 17.5 nM
- koff [3]: 0.0015 s⁻¹
- kon [3]: 85500 M⁻¹ s⁻¹
B1: VHH 1-Fc fusion (SEQ ID NO: 5) (Fc fusion)
chain: QVQLVESGGGLVQPGGSLRLSCAASGFTFGQFGMSWVRQAPAKGPERVSAISSDGSGTIYADSVKGRFTISRDNAKNTLYLQMNSLKPEDTAVYYCTIGSSTTPSGPGQGTQVTVSSGGGGS[letters of human IgG1 Fc left out]

- Kd [1]: 66.7 nM
- koff [1]: 0.0137 s⁻¹
- kon [1]: 206000 M⁻¹ s⁻¹
- Kd [2]: 11.3 nM
- koff [2]: 0.00164 s⁻¹
- kon [2]: 146000 M⁻¹ s⁻¹
B2: VHH 1-8-Fc fusion (SEQ ID NO: 30) (Fc fusion)
chain: B1 chain with Q1E, A42G, P45L, R47W, A75S, K87R, P88A, Q112T

- Kd [1]: 22.8 nM
- koff [1]: 0.0115 s⁻¹
- kon [1]: 503000 M⁻¹ s⁻¹
- Kd [2]: 6.21 nM
- koff [2]: 0.00407 s⁻¹
- kon [2]: 656000 M⁻¹ s⁻¹
B3: VHH 1-5-Fc fusion (SEQ ID NO: 27) (Fc fusion)
chain: B1 chain with G55A

- Kd [1]: 37.5 nM
- koff [1]: 0.0176 s⁻¹
- kon [1]: 468000 M⁻¹ s⁻¹
- Kd [2]: 7.61 nM
- koff [2]: 0.00462 s⁻¹
- kon [2]: 607000 M⁻¹ s⁻¹
B4: VHH 1-3-Fc fusion (SEQ ID NO: 25) (Fc fusion)
chain: B1 chain with D54S

- Kd [1]: 9.99 nM
- koff [1]: 0.00714 s⁻¹
- kon [1]: 715000 M⁻¹ s⁻¹
- Kd [2]: 6.32 nM
- koff [2]: 0.00421 s⁻¹
- kon [2]: 666000 M⁻¹ s⁻¹
B5: VHH 1-6-Fc fusion (SEQ ID NO: 28) (Fc fusion)
chain: B1 chain with G55S

- Kd [4]: 318 nM
- koff [4]: 0.0132 s⁻¹
- kon [4]: 41400 M⁻¹ s⁻¹
- Kd [5]: 167 nM
- koff [5]: 0.388 s⁻¹
- kon [5]: 2.33e+06 M⁻¹ s⁻¹
B6: Fc-VHH 9-1 fusion (SEQ ID NO: 209) (Fc fusion)
chain: [letters of human IgG1 Fc left out]GGGSEVQLLESGGGLVQPGGSLRLSCAASGFTFGSFGMSWVRQAPGKGPEWVSAIDSGGADTRYAESVKGRFTISRDNSKNTLYLQMNSLRPEDTAVYYCTIGRSASRGSQGTLVTVSS

- Kd [4]: 306 nM
- koff [4]: 0.0606 s⁻¹
- kon [4]: 198000 M⁻¹ s⁻¹
- Kd [5]: 182 nM
- koff [5]: 0.0261 s⁻¹
- kon [5]: 143000 M⁻¹ s⁻¹
B7: Fc-VHH 20-1 fusion (SEQ ID NO: 217) (Fc fusion)
chain: [letters of human IgG1 Fc left out]GGGSEVQLLESGGGLVQPGGSLRLSCAASGFSFGSFGMSWVRQAPGKGPEWVSAIDSGGADTRYAETVKGRFTISRDNSKNTLYLQMNSLRPEDTAVYYCTIGRSTSRGSQGTLVTVSS

- Kd [6]: 461 nM
B8: VHH-Fc control (SEQ ID NO: 33) (Fc fusion)
chain: EVQLLESGGGLVQPGGSLRLSCAASGFTFRSFGMSWVRQAPGKGPEWVSSISGSGSDTLYADSVKGRFTISRDNSKNTLYLQMNSLRPEDTAVYYCTIGGSLSRSSQGTLVTVSSGGGGS[letters of human IgG1 Fc left out]
notes: also called VHH-Fc fusion control; control VHH-Fc

- Kd [6]: 2290 nM
- koff [6]: 0.0942 s⁻¹
- kon [6]: 41100 M⁻¹ s⁻¹
- Kd [3]: 168 nM
- koff [3]: 0.0262 s⁻¹
- kon [3]: 156000 M⁻¹ s⁻¹
B9: VHH 4-Fc fusion (SEQ ID NO: 145) (Fc fusion)
chain: QVQLQESGGGLVQPGGSLRLSCAASGFTFGSFGMSWVRQAPGKGPEWVSAIDSGGADTRYAESVKGRFTISRDNAKSTLYLQMNSLKPEDTAVYYCTIGRSSSRGSQGTQVTVSSGGGGS[letters of human IgG1 Fc left out]
notes: Llama VHH-G4S-wild-type IgG1 Fc

- Kd [1]: 27.7 nM
- koff [1]: 0.00638 s⁻¹
- kon [1]: 230000 M⁻¹ s⁻¹
- Kd [2]: 1.01 nM
- koff [2]: 0.000158 s⁻¹
- kon [2]: 156000 M⁻¹ s⁻¹
B10: VHH 9-5-Fc fusion (SEQ ID NO: 201) (Fc fusion)
chain: B9 chain with Q1E, Q5V, P45L, A75S, S77N, K87R, P88A, S102A, S106G, Q110T
